# Changes are numbered by the printed parent chain. Names and notes keep the numbering of the source. ± gives the standard deviation of the averaged measurements. Laboratory Escherichia coli strains with one amino-acid change in an essential protein, pooled on minimal glucose agar with carbenicillin or gentamicin at twice the control MIC (plus kanamycin and chloramphenicol for the plasmids), 48 h. Fold change of barcode share against drug-free plates; higher = less susceptible. Active = above 20 in both replicates (the paper's putatively resistant). '<' = one read or none on drug, '>' = one read or none on a drug-free plate. Shares are relative, so most strains fall below 1 when a few take over. Listed are strains with at least 15 reads on both drug-free plates, and hits; most hits rest on fewer reference reads. Replicate rank correlation about 0.5. Edits are read from barcodes.
# B1: fabB V185Q (protein)
# chain: MKRAVITGLGIVSSIGNNQQEVLASLREGRSGITFSQELKDSGMRSHVWGNVKLDTTGLIDRKVVRFMSDASIYAFLSMEQAIADAGLSPEAYQNNPRVGLIAGSGGGSPRFQVFGADAMRGPRGLKAVGPYVVTKAMASGVSACLATPFKIHGVNYSISSACATSAHCIGNAVEQIQLGKQDIQFAGGGEELCWEMACEFDAMGALSTKYNDTPEKASRTYDAHRDGFVIAGGGGMVVVEELEHALARGAHIYAEIVGYGATSDGADMVAPSGEGAVRCMKMAMHGVDTPIDYLNSHGTSTPVGDVKELAAIREVFGDKSPAISATKAMTGHSLGAAGVQEAIYSLLMLEHGFIAPSINIEELDEQAAGLNIVTETTDRELTTVMSNSFGFGGTNATLVMRKLKD
# B2: fabB F186W (protein)
# chain: B1 chain with Q185V, F186W
# B3: fabB V185D (protein)
# chain: B1 chain with Q185D
# B4: fabB V185P (protein)
# chain: B1 chain with Q185P
# B5: fabB F186Q (protein)
# chain: B1 chain with Q185V, F186Q
# B6: fabB F186D (protein)
# chain: B1 chain with Q185V, F186D
# B7: fabB F186A (protein)
# chain: B1 chain with Q185V, F186A
# B8: fabD M88D (protein)
# chain: MTQFAFVFPGQGSQTVGMLADMAASYPIVEETFAEASAALGYDLWALTQQGPAEELNKTWQTQPALLTASVALYRVWQQQGGKAPAMDAGHSLGEYSALVCAGVIDFADAVRLVEMRGKFMQEAVPEGTGAMAAIIGLDDASIAKACEEAAEGQVVSPVNFNSPGQVVIAGHKEAVERAGAACKAAGAKRALPLPVSVPSHCALMKPAADKLAVELAKITFNAPTVPVVNNVDVKCETNGDAIRDALVRQLYNPVQWTKSVEYMAAQGVEHLYEVGPGKVLTGLTKRIVDTLTASALNEPSAMAAALEL
# B9: fabD V114D (protein)
# chain: B8 chain with D88M, V114D
# B10: fabD V114W (protein)
# chain: B8 chain with D88M, V114W
# B11: fabD V114Q (protein)
# chain: B8 chain with D88M, V114Q
# B12: argA M439A (protein)
# chain: MVKERKTELVEGFRHSVPYINTHRGKTFVIMLGGEAIEHENFSSIVNDIGLLHSLGIRLVVVYGARPQIDANLAAHHHEPLYHKNIRVTDAKTLELVKQAAGTLQLDITARLSMSLNNTPLQGAHINVVSGNFIIAQPLGVDDGVDYCHSGRIRRIDEDAIHRQLDSGAIVLMGPVAVSVTGESFNLTSEEIATQLAIKLKAEKMIGFCSSQGVTNDDGDIVSELFPNEAQARVEAQEEKGDYNSGTVRFLRGAVKACRSGVRRCHLISYQEDGALLQELFSRDGIGTQIVMESAEQIRRATINDIGGILELIRPLEQQGILVRRSREQLEMEIDKFTIIQRDNTTIACAALYPFPEEKIGEMACVAVHPDYRSSSRGEVLLERIAAQAKQSGLSKLFVLTTRSIHWFQERGFTPVDIDLLPESKKQLYNYQRKSKVLAADLG
# B13: accA V196W (protein)
# chain: MSLNFLDFEQPIAELEAKIDSLTAVSRQDEKLDINIDEEVHRLREKSVELTRKIFADLGAWQIAQLARHPQRPYTLDYVRLAFDEFDELAGDRAYADDKAIVGGIARLDGRPVMIIGHQKGRETKEKIRRNFGMPAPEGYRKALRLMQMAERFKMPIITFIDTPGAYPGVGAEERGQSEAIARNLREMSRLGVPVWCTVIGEGGSGGALAIGVGDKVNMLQYSTYSVISPEGCASILWKSADKAPLAAEAMGIIAPRLKELKLIDSIIPEPLGGAHRNPEAMAASLKAQLLADLADLDVLSTEDLKNRRYQRLMSYGYA
# Molecular target: Escherichia coli (laboratory strain)
# Test: barcode share on antibiotic plates over drug-free plates; higher = less susceptible
# Settings: antibiotic: carbenicillin; 2× MIC (3.1 µg/mL)
# Description: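 A pool of E. coli strains, each edited to carry one amino-acid change in an essential protein, was grown for 48 h on minimal glucose agar with or without antibiotic; strain barcodes were sequenced; mean of two replicates.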
row,Protein,fold change of barcode share
1,B1,0.296 ± 0.1
2,B2,0.312 ± 0.28
3,B3,0.188 ± 0.067
4,B4,0.124 ± 0.052
5,B5,0.332 ± 0.28
6,B6,0.172 ± 0.0097
7,B7,0.519 ± 0.53
8,B8,0.636 ± 0.5
9,B9,0.324 ± 0.038
10,B10,0.372 ± 0.32
11,B11,0.378 ± 0.073
12,B12,0.672 ± 0.35
13,B13,0.255 ± 0.037

# Same assay, conditions: antibiotic: gentamicin; 2× MIC (MIC 0.45 µg/mL)
row,Protein,fold change of barcode share
1,B1,< 0.00759
2,B2,< 0.00457
3,B4,< 0.00687
4,B5,< 0.00992
5,B6,0.0201 ± 0.011
6,B7,< 0.00646
7,B8,< 0.00992
8,B9,< 0.00816
9,B10,< 0.00905
10,B11,< 0.00549
11,B13,0.00768 ± 0.0067

# Source: the supplement of paper PMC11876631
